# Source: the supplement of paper PMC8728848
# The list shows a part of the results.
# Assays:
# Assay in all cases: glycan array binding signal (z-score within array); higher = stronger binding
# Details in all cases: glycan notation: IUPAC condensed, linker removed
# [1] = target: Gal(b1-4)Glc6S
# How it was run: (§1)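 Columns mapping to the same glycan were averaged after glycan names were converted to IUPAC-condensed notation. The data come from 3228 arrays in the Consortium for Functional Glycomics database, limited to those with an available protein sequence. Binding is reported as a within-array Z-score averaged across arrays of one protein sequence and across linkers.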
# [2] = target: Gal(b1-4)GlcNAc
# How it was run: as §1
# [3] = target: Gal(b1-4)GlcNAc(a1-6)Gal(b1-4)GlcNAc
# How it was run: as §1
# [4] = target: Gal(b1-4)GlcNAc(b1-2)Man
# How it was run: as §1
# [5] = target: Gal(b1-4)GlcNAc(b1-2)Man(a1-3)Man(b1-4)GlcNAc(b1-4)GlcNAc
# How it was run: as §1
# [6] = target: Gal(b1-4)GlcNAc(b1-2)Man(a1-3)[Gal(b1-4)GlcNAc(b1-2)Man(a1-6)]Man(b1-4)GlcNAc(b1-4)GlcNAc
# How it was run: as §1
# [7] = target: Gal(b1-4)GlcNAc(b1-2)Man(a1-3)[Gal(b1-4)GlcNAc(b1-2)Man(a1-6)]Man(b1-4)GlcNAc(b1-4)[Fuc(a1-6)]GlcNAc
# How it was run: as §1
# [8] = target: Gal(b1-4)GlcNAc(b1-2)Man(a1-3)[Gal(b1-4)GlcNAc(b1-2)Man(a1-6)][Gal(b1-4)GlcNAc(b1-4)]Man(b1-4)GlcNAc(b1-4)[Fuc(a1-6)]GlcNAc
# How it was run: as §1
# [9] = target: Gal(b1-4)GlcNAc(b1-2)Man(a1-3)[Gal(b1-4)GlcNAc(b1-2)Man(a1-6)][GlcNAc(b1-4)]Man(b1-4)GlcNAc(b1-4)[Fuc(a1-6)]GlcNAc
# How it was run: as §1
# [10] = target: Gal(b1-4)GlcNAc(b1-2)Man(a1-3)[GlcNAc(b1-2)Man(a1-6)]Man(b1-4)GlcNAc(b1-4)GlcNAc
# How it was run: as §1
# [11] = target: Gal(b1-4)GlcNAc(b1-2)Man(a1-3)[GlcNAc(b1-4)][Gal(b1-4)GlcNAc(b1-2)Man(a1-6)]Man(b1-4)GlcNAc(b1-4)GlcNAc
# How it was run: as §1
# [12] = target: Gal(b1-4)GlcNAc(b1-2)Man(a1-3)[Man(a1-6)]Man(b1-4)GlcNAc(b1-4)GlcNAc
# How it was run: as §1
# [13] = target: Gal(b1-4)GlcNAc(b1-2)Man(a1-6)Man(b1-4)GlcNAc(b1-4)GlcNAc
# How it was run: as §1
# [14] = target: Gal(b1-4)GlcNAc(b1-2)Man(a1-6)[GlcNAc(b1-2)Man(a1-3)]Man(b1-4)GlcNAc(b1-4)GlcNAc
# How it was run: as §1
# [15] = target: Gal(b1-4)GlcNAc(b1-2)Man(a1-6)[Man(a1-3)]Man(b1-4)GlcNAc(b1-4)GlcNAc
# How it was run: as §1
# [16] = target: Gal(b1-4)GlcNAc(b1-2)[Gal(b1-4)GlcNAc(b1-4)]Man(a1-3)[Gal(b1-4)GlcNAc(b1-2)Man(a1-6)]Man(b1-4)GlcNAc(b1-4)GlcNAc
# How it was run: as §1
# [17] = target: Gal(b1-4)GlcNAc(b1-2)[Gal(b1-4)GlcNAc(b1-4)]Man(a1-3)[Gal(b1-4)GlcNAc(b1-2)[Gal(b1-4)GlcNAc(b1-6)]Man(a1-6)]Man(b1-4)GlcNAc(b1-4)GlcNAc
# How it was run: as §1
# [18] = target: Gal(b1-4)GlcNAc(b1-2)[Gal(b1-4)GlcNAc(b1-4)]Man(a1-3)[GlcNAc(b1-4)][Gal(b1-4)GlcNAc(b1-2)Man(a1-6)]Man(b1-4)GlcNAc(b1-4)GlcNAc
# How it was run: as §1
# [19] = target: Gal(b1-4)GlcNAc(b1-2)[Gal(b1-4)GlcNAc(b1-4)]Man(a1-3)[GlcNAc(b1-4)][Gal(b1-4)GlcNAc(b1-2)[Gal(b1-4)GlcNAc(b1-6)]Man(a1-6)]Man(b1-4)GlcNAc(b1-4)GlcNAc
# How it was run: as §1
# [20] = target: Gal(b1-4)GlcNAc(b1-2)[Gal(b1-4)GlcNAc(b1-6)]Man(a1-6)[Gal(b1-4)GlcNAc(b1-2)Man(a1-3)]Man(b1-4)GlcNAc(b1-4)GlcNAc
# How it was run: as §1
# [21] = target: Gal(b1-4)GlcNAc(b1-2)[Gal(b1-4)GlcNAc(b1-6)]Man(a1-6)[Gal(b1-4)GlcNAc(b1-2)Man(a1-3)]Man(b1-4)GlcNAc(b1-4)[Fuc(a1-6)]GlcNAc
# How it was run: as §1
# [22] = target: Gal(b1-4)GlcNAc(b1-2)[Gal(b1-4)GlcNAc(b1-6)]Man(a1-6)[GlcNAc(b1-4)][Gal(b1-4)GlcNAc(b1-2)Man(a1-3)]Man(b1-4)GlcNAc(b1-4)GlcNAc
# How it was run: as §1
# [23] = target: Gal(b1-4)GlcNAc(b1-2)[Gal(b1-4)GlcNAc(b1-6)]Man(a1-6)[GlcNAc(b1-4)][Gal(b1-4)GlcNAc(b1-2)[Gal(b1-4)GlcNAc(b1-4)]Man(a1-3)]Man(b1-4)GlcNAc(b1-4)[Fuc(a1-6)]GlcNAc
# How it was run: as §1
# [24] = target: Gal(b1-4)GlcNAc(b1-3)Gal(b1-3)GalNAc
# How it was run: as §1
# [25] = target: Gal(b1-4)GlcNAc(b1-3)Gal(b1-3)GlcNAc
# How it was run: as §1
# [26] = target: Gal(b1-4)GlcNAc(b1-3)Gal(b1-4)Glc
# How it was run: as §1
# [27] = target: Gal(b1-4)GlcNAc(b1-3)Gal(b1-4)GlcNAc
# How it was run: as §1
# [28] = target: Gal(b1-4)GlcNAc(b1-3)Gal(b1-4)GlcNAc(b1-2)Man(a1-3)[Gal(b1-4)GlcNAc(b1-3)Gal(b1-4)GlcNAc(b1-2)Man(a1-6)]Man(b1-4)GlcNAc(b1-4)GlcNAc
# How it was run: as §1
# [29] = target: Gal(b1-4)GlcNAc(b1-3)Gal(b1-4)GlcNAc(b1-2)Man(a1-3)[Gal(b1-4)GlcNAc(b1-3)Gal(b1-4)GlcNAc(b1-2)Man(a1-6)]Man(b1-4)GlcNAc(b1-4)[Fuc(a1-6)]GlcNAc
# How it was run: as §1
# [30] = target: Gal(b1-4)GlcNAc(b1-3)Gal(b1-4)GlcNAc(b1-2)[Gal(b1-4)GlcNAc(b1-3)Gal(b1-4)GlcNAc(b1-6)]Man(a1-6)[Gal(b1-4)GlcNAc(b1-3)Gal(b1-4)GlcNAc(b1-2)Man(a1-3)]Man(b1-4)GlcNAc(b1-4)GlcNAc
# How it was run: as §1
# [31] = target: Gal(b1-4)GlcNAc(b1-3)Gal(b1-4)GlcNAc(b1-2)[Gal(b1-4)GlcNAc(b1-3)Gal(b1-4)GlcNAc(b1-6)]Man(a1-6)[Gal(b1-4)GlcNAc(b1-3)Gal(b1-4)GlcNAc(b1-2)Man(a1-3)]Man(b1-4)GlcNAc(b1-4)[Fuc(a1-6)]GlcNAc
# How it was run: as §1
# [32] = target: Gal(b1-4)GlcNAc(b1-3)Gal(b1-4)GlcNAc(b1-3)Gal(b1-4)GlcNAc
# How it was run: as §1
# [33] = target: Gal(b1-4)GlcNAc(b1-3)Gal(b1-4)GlcNAc(b1-3)Gal(b1-4)GlcNAc(b1-2)Man(a1-3)[Gal(b1-4)GlcNAc(b1-3)Gal(b1-4)GlcNAc(b1-3)Gal(b1-4)GlcNAc(b1-2)Man(a1-6)]Man(b1-4)GlcNAc(b1-4)GlcNAc
# How it was run: as §1
# [34] = target: Gal(b1-4)GlcNAc(b1-3)Gal(b1-4)GlcNAc(b1-3)Gal(b1-4)GlcNAc(b1-2)Man(a1-3)[Gal(b1-4)GlcNAc(b1-3)Gal(b1-4)GlcNAc(b1-3)Gal(b1-4)GlcNAc(b1-2)Man(a1-6)]Man(b1-4)GlcNAc(b1-4)[Fuc(a1-6)]GlcNAc
# How it was run: as §1
# [35] = target: Gal(b1-4)GlcNAc(b1-3)Gal(b1-4)GlcNAc(b1-3)Gal(b1-4)GlcNAc(b1-2)[Gal(b1-4)GlcNAc(b1-3)Gal(b1-4)GlcNAc(b1-3)Gal(b1-4)GlcNAc(b1-6)]Man(a1-6)[Gal(b1-4)GlcNAc(b1-3)Gal(b1-4)GlcNAc(b1-3)Gal(b1-4)GlcNAc(b1-2)Man(a1-3)]Man(b1-4)GlcNAc(b1-4)[Fuc(a1-6)]GlcNAc
# How it was run: as §1
# [36] = target: Gal(b1-4)GlcNAc(b1-3)Gal(b1-4)GlcNAc(b1-3)Gal(b1-4)GlcNAc(b1-3)Gal(b1-4)GlcNAc(b1-2)Man(a1-3)[Gal(b1-4)GlcNAc(b1-3)Gal(b1-4)GlcNAc(b1-3)Gal(b1-4)GlcNAc(b1-3)Gal(b1-4)GlcNAc(b1-2)Man(a1-6)]Man(b1-4)GlcNAc(b1-4)GlcNAc
# How it was run: as §1
# [37] = target: Gal(b1-4)GlcNAc(b1-3)Gal(b1-4)GlcNAc(b1-3)Gal(b1-4)GlcNAc(b1-3)Gal(b1-4)GlcNAc(b1-2)Man(a1-3)[Gal(b1-4)GlcNAc(b1-3)Gal(b1-4)GlcNAc(b1-3)Gal(b1-4)GlcNAc(b1-3)Gal(b1-4)GlcNAc(b1-2)Man(a1-6)]Man(b1-4)GlcNAc(b1-4)[Fuc(a1-6)]GlcNAc
# How it was run: as §1
# [38] = target: Gal(b1-4)GlcNAc(b1-3)Gal(b1-4)GlcNAc(b1-3)Gal(b1-4)GlcNAc(b1-3)Gal(b1-4)GlcNAc(b1-2)[Gal(b1-4)GlcNAc(b1-3)Gal(b1-4)GlcNAc(b1-3)Gal(b1-4)GlcNAc(b1-3)Gal(b1-4)GlcNAc(b1-6)]Man(a1-6)[Gal(b1-4)GlcNAc(b1-3)Gal(b1-4)GlcNAc(b1-3)Gal(b1-4)GlcNAc(b1-3)Gal(b1-4)GlcNAc(b1-2)Man(a1-3)]Man(b1-4)GlcNAc(b1-4)[Fuc(a1-6)]GlcNAc
# How it was run: as §1
binder,measurement,setting,value
Epa12 (Candida glabrata) (protein) MGSSHHHHHHSSGLVPRGSHMLEPDNSLQIFDSFLSNPSKYPLGCSPKITNPKKGLSMELYSYPYRKKGSHPCWDPAYLDPNFPRVGYKKNKLIARVDGVSGDINFNFHPKRQCTPIADYLPPNFNYNEPITTTNFTMLLYGYFKPKVTGLHTFDISADDLLFMNFGAGNAFDCCRRDSTADTFGNYVAWAIWGRRIVRNKLTVRLDKGIYYPLRLFFNNRDYYGQMRLTFKTEHGSERITDFSDYFFSVDDTSEGCPGLITYESECADVKSSTVLETDYITIQAEKE,glycan array binding signal (z-score),[1],3.51
same,glycan array binding signal (z-score),[2],0.202
same,glycan array binding signal (z-score),[3],3.61
same,glycan array binding signal (z-score),[4],-0.38
same,glycan array binding signal (z-score),[5],-0.259
same,glycan array binding signal (z-score),[6],0.425
same,glycan array binding signal (z-score),[7],-0.317
same,glycan array binding signal (z-score),[8],-0.41
same,glycan array binding signal (z-score),[9],-0.351
same,glycan array binding signal (z-score),[10],-0.245
same,glycan array binding signal (z-score),[11],-0.225
same,glycan array binding signal (z-score),[12],-0.214
same,glycan array binding signal (z-score),[13],-0.206
same,glycan array binding signal (z-score),[14],-0.119
same,glycan array binding signal (z-score),[15],-0.149
same,glycan array binding signal (z-score),[16],-0.082
same,glycan array binding signal (z-score),[17],-0.043
same,glycan array binding signal (z-score),[18],-0.266
same,glycan array binding signal (z-score),[19],0.047
same,glycan array binding signal (z-score),[20],0.014
same,glycan array binding signal (z-score),[21],-0.123
same,glycan array binding signal (z-score),[22],-0.134
same,glycan array binding signal (z-score),[23],-0.107
same,glycan array binding signal (z-score),[24],0.086
same,glycan array binding signal (z-score),[25],-0.14
same,glycan array binding signal (z-score),[26],0.229
same,glycan array binding signal (z-score),[27],-0.196
same,glycan array binding signal (z-score),[28],-0.232
same,glycan array binding signal (z-score),[29],-0.152
same,glycan array binding signal (z-score),[30],0.204
same,glycan array binding signal (z-score),[31],-0.076
same,glycan array binding signal (z-score),[32],-0.353
same,glycan array binding signal (z-score),[33],-0.291
same,glycan array binding signal (z-score),[34],-0.298
same,glycan array binding signal (z-score),[35],-0.152
same,glycan array binding signal (z-score),[36],-0.347
same,glycan array binding signal (z-score),[37],-0.234
same,glycan array binding signal (z-score),[38],-0.201
